# From the supplement of paper PMC2702839
# Where a name gives a salt, the structure may show the parent alone. The list shows a part of the results.
# Test system: Schistosoma mansoni schistosomula
# Assay: phenotypic hit in primary schistosomula screen (any phenotype vs DMSO control) (binary (1 = hit, 0 = no phenotype)); higher = active (phenotype induced)
# Conditions: 1 µM; time (d): 7
row,SMILES,phenotypic hit
1,COc1ccc(OC)c(C(O)C(C)N)c1 (stereo not given) [Methoxamine hydrochloride],inactive: 0
2,CCC(=O)O[C@H]1CC[C@H]2[C@@H]3CCC4=CC(=O)CC[C@]4(C)[C@H]3CC[C@]12C [testosterone propionate],inactive: 0
3,CNC(=O)N(C)c1nnc(C(C)(C)C)s1 [tebuthiuron],inactive: 0
4,CC[S+]([O-])CCSP(=O)(OC)OC (stereo not given) [oxdemetonmethyl],inactive: 0
5,CCOP(=S)(OCC)Oc1nc(Cl)c(Cl)cc1Cl [chlorpyrifos],inactive: 0
6,CCCCCCCCCCCCCCCC[n+]1ccccc1 [cetylpyridinium chloride],active: 1
7,C=CCC1(C(C)CCC)C(=O)NC(=S)NC1=O (stereo not given) [thiamylal sodium],inactive: 0
8,c1ccc2c3c([nH]c2c1)CNCC3 [noreleagnine],inactive: 0
9,c1ccc(/N=N/c2ccccc2)cc1 [azobenzene],inactive: 0
10,CC(=O)O[C@@H]1CC[C@@]2(C)[C@@H](CC[C@@H]3[C@@H]2CC[C@]2(C)C(=O)CC[C@@H]32)C1 [androsterone acetate],inactive: 0
11,CC(N)C(O)c1ccc(O)c(O)c1 (stereo not given) [nordefrin  hydrochloride],inactive: 0
12,CC(=O)NC1CCSC1=O (stereo not given) [citiolone],inactive: 0
13,CNC(=O)Oc1ccccc1OC(C)C [propoxur],inactive: 0
14,COc1cc([C@@H]2c3cc4c(cc3[C@H](OC(C)=O)[C@H]3COC(=O)[C@@H]23)OCO4)cc(OC)c1OC [picropodophyllin acetate],inactive: 0
15,c1ccc2c(c1)sc1ccccc12 [dibenzothiophene],inactive: 0
16,O=P1(N(CCCl)CCCl)NCCCO1 (stereo not given) [cyclophosphamide hydrate],inactive: 0
17,C=C1C2CC[C@@]3(C)[C@H](c4ccoc4)OC(=O)C[C@]13O[C@H]1CC(=O)C(C)(C)[C@H](C(OC(C)=O)C(=O)OC)[C@@]21C (stereo not given in full) [6-acetoxyangolensic acid methyl ester],inactive: 0
18,CC(C)[C@]12O[C@H]1[C@@H]1O[C@@]13[C@@]1(C)CCC4=C(COC4=O)[C@@H]1C[C@@H]1O[C@@]13C2=O [triptonide],active: 1
19,CCOP(=S)(OCC)Oc1ccc2c(C)c(Cl)c(=O)oc2c1 [coumophos],inactive: 0
20,COc1ccc(C(c2ccc(OC)cc2)C(Cl)(Cl)Cl)cc1 [methoxychlor],inactive: 0
21,"COC(=O)NC(=S)Nc1ccccc1NC(=S)NC(=O)OC [dimethyl 4,4-o-phenylene-bis (3-thiophanate)]",inactive: 0
22,COc1ccccc1N1CCNCC1 [1-(2-Methoxyphenyl)piperazine hydrochloride],inactive: 0
23,FC(F)(F)c1cccc(N2CCNCC2)c1 [TFMPP hydrochloride],inactive: 0
24,CC1CC(Cl)CCC1C(=O)OC(C)(C)C (stereo not given) [trimedlure],inactive: 0

row,SMILES,phenotypic hit
1,Cc1nccc2c1[nH]c1cc(O)ccc12 [harmol hydrochloride],inactive: 0
2,CC(C)c1cc2c(c(O)c1O)[C@@]1(C(=O)O)CCCC(C)(C)[C@@H]1CC2 [carnosic acid],inactive: 0
3,"CCCCCCC(C)OC(=O)COc1ccc(Cl)cc1Cl (stereo not given) [2,4-dichlorophenoxyacetic acid, isooctyl ester]",inactive: 0
4,Cc1[nH]c2ccccc2c1CN(C)C [2-methyl gramine],inactive: 0
5,CO[C@@H]1C[C@H](O[C@H]2CC[C@]3(C)[C@H]4CC[C@]5(C)[C@@H](C6=CC(=O)OC6)CC[C@]5(O)[C@@H]4CC[C@]3(O)C2)O[C@H](C)[C@H]1O [periplocymarin],inactive: 0
6,CN1C[C@H](CNC(=O)OCc2ccccc2)C[C@@H]2c3cccc4c3c(cn4C)C[C@H]21 [metergoline],inactive: 0
7,Oc1ccc2c3c1O[C@H]1[C@@H](O)CC[C@@]4(O)[C@@H](C2)N(CC2CCC2)CC[C@]314 [nalbuphine hydrochloride],inactive: 0
8,CC(=O)O[C@@H]1CC2C(C)(C)[C@H](O)C=C[C@]2(C)C2CC[C@]3(C)C(=CC(=O)O[C@H]3c3ccoc3)[C@@]21C (stereo partly drawn) [3-alpha-hydroxydeoxygedinin],inactive: 0
9,O=C(O)CC[N+](=O)[O-] [bovinocidin (3-nitropropionic acid)],inactive: 0
10,C/C=C/c1ccc2c(c1)OCO2 [isosafrole],inactive: 0
11,CN1CCc2cc3c(cc2[C@H]1[C@@H]1OC(=O)c2c1ccc1c2OCO1)OCO3 [bicuculline (+)],inactive: 0
12,CC1C=CC=CCCC=CC=CC=CC=CC(OC2OC(C)C(O)C(N)C2O)CC2OC(O)(CC(O)C(O)CCC(O)CC(O)CC(O)CC(=O)OC(C)C(C)C1O)CC(O)C2C(=O)O (stereo not given) [nystatin],inactive: 0
13,CC(=O)O[C@H]1CC[C@@]2(C)[C@H](CC[C@@H]3[C@@H]2CC[C@]2(C)[C@@H](C4=CC(=O)OC4)[C@@H](OC(C)=O)C[C@]32O)C1 [gitoxigenin diacetate],inactive: 0
14,N#C[C@H](O[C@@H]1O[C@H](CO[C@@H]2O[C@H](CO)[C@@H](O)[C@H](O)[C@H]2O)[C@@H](O)[C@H](O)[C@H]1O)c1ccccc1 [amygdalin],inactive: 0
15,COc1cc2c(c(OC)c1OC)-c1ccc(OC)c(=O)cc1[C@@H](NC(C)=O)CC2 [colchicine],active: 1
16,C[C@]12CC[C@H](O)CC1=CC[C@@H]1[C@@H]2CC[C@]2(C)C(=O)CC[C@@H]12 [dehydroepiandrosterone],inactive: 0
17,CC(C)Nc1nc(Cl)nc(NC(C)C)n1 [propazine],inactive: 0
18,N#Cc1c(Cl)c(Cl)c(Cl)c(C#N)c1Cl [tetrachloroisophthalonitrile],inactive: 0
19,O=S1OCC2C(CO1)C1(Cl)C(Cl)=C(Cl)C2(Cl)C1(Cl)Cl (stereo not given) [endosulfan],inactive: 0
20,"CCCCSP(=O)(SCCCC)SCCCC [s,s,s,-tributylphosphorotrithioate]",inactive: 0
21,CC[N+]1(C)CCCC(OC(=O)C(O)(c2ccccc2)c2ccccc2)C1 (stereo not given) [pipenzolate bromide],inactive: 0
22,CC1=C2C(=CO[C@H](C)[C@H]2C)C(O)=C(C(=O)O)C1=O [citrinin],inactive: 0
23,COc1cc2c(cc1OC)[C@@H]1C(=O)c3ccc4c(c3O[C@@H]1CO2)CC(C(C)C)O4 (stereo not given in full) [dihydrorotenone],active: 1
24,CCC1(C2=NCCN2)Cc2ccccc2O1 (stereo not given) [efaroxan],inactive: 0

row,SMILES,phenotypic hit
1,CC[C@@H](CO)NC(=O)[C@@H]1C=C2c3cccc4[nH]cc(c34)C[C@H]2N(C)C1 [methylergonovine maleate],inactive: 0
2,CCCCOC(=O)c1ccccc1C(=O)OCCCC [dibutyl phthalate],inactive: 0
3,O=C(O)c1nn(Cc2ccc(Cl)cc2Cl)c2ccccc12 [lonidamine],inactive: 0
4,C[C@@H]1C[C@@H]([C@H](O)CC2CC(=O)NC(=O)C2)C(=O)[C@@H](C)C1 [cycloheximide],inactive: 0
5,COc1cc2c(cc1O)CCN[C@@H]2C [salsoline],inactive: 0
6,CC(=O)[O-].CC(=O)[O-].[Cd+2] [cadmium acetate],inactive: 0
7,c1cncc([C@@H]2CCCCN2)c1 [anabasine hydrochloride],inactive: 0
8,CC(C)(C#N)O[C@@H]1O[C@H](CO)[C@@H](O)[C@H](O)[C@H]1O [linamarin],inactive: 0
9,CC(C)(O)[C@@H]1[C@H]2OC(=O)[C@@H]1[C@]1(O)C[C@H]3O[C@]34C(=O)O[C@H]2[C@]14C [picrotin],inactive: 0
10,O=c1[nH]oc2c1CCNC2 [THIP hydrochloride],inactive: 0
11,C=C(C)[C@H]1Cc2c(ccc3c(=O)c4c(oc23)COc2cc(OC)c(OC)cc2-4)O1 [dehydrorotenone],inactive: 0
12,Clc1ccc(Cl)cc1 [paradichlorobenzene],inactive: 0
13,COC(=O)C=C(C)OP(=O)(OC)OC [mevinphos],inactive: 0
14,CCC(C)C(=O)OC1CC2(C)C(c3ccoc3)OC(=O)CC23OC2(C)OC34C(OC(=O)C(C)C)C3(O)C(OC(=O)C5(C)OC5C)C5(C)CC3(O)C(C)(C5CC(=O)OC)C14O2 (stereo not given) [entandrophragmin],inactive: 0
15,C=CCc1cc(OC)c2c(c1OC)OCO2 [apiole],active: 1
16,COc1cc2ccc(=O)oc2c2ccoc12 [sphondin],inactive: 0
17,O=c1cccc2n1C[C@@H]1CNC[C@H]2C1 [cytisine],inactive: 0
18,CCC(=O)Nc1ccc(Cl)c(Cl)c1 [propanil],inactive: 0
19,CC[C@@H](C)C(=O)O[C@H]1[C@H](O)[C@H]2[C@@H](CN3C[C@@H](C)CC[C@H]3[C@@]2(C)O)[C@@H]2C[C@]34O[C@]5(O)[C@@H](OC(=O)[C@@](C)(O)CC)CC[C@@]3(C)[C@@H]5[C@@H](OC(C)=O)[C@@H](OC(C)=O)[C@H]4[C@@]21O [protoveratrine a],inactive: 0
20,O=C(O)CF [sodium fluoroacetate],inactive: 0
21,O=C(CCCN1CCC2(CC1)C(=O)NCN2c1ccccc1)c1ccc(F)cc1 [Spiperone hydrochloride],inactive: 0
22,"CC1(C)C(=O)[C@@H]2O[C@@H]2[C@@]2(C)C1C[C@@H](O)[C@]1(C)C2CC[C@@]2(C)[C@H](c3ccoc3)OC(=O)C3OC321 (stereo partly drawn) [1,2alpha-epoxydeacetoxydihydrogedunin]",inactive: 0
